The other results are listed elsewhere or left out.
B1: chr6:160170297:160170298:+_ENSG00000146457_ENST00000337387|hu_hu|motif|central (ssRNA)
RNA: GGGAGUUCUACAGUCCGACGAUCCAAAGCUCUUUUAAACAUGUGCCUGUUGAAUGGAACGGGGAUUUCAUAAAAUUCACGGAAAAAAAUAAUGCAGUGAGUCUCAUCACAGCUAAUAUCCUUAUACAAUCUAGUUGUGAAAUGCAACAGAGGAUUGAGCAUCA
B2: chr3:10015032:10015033:+_ENSMUSG00000027533_ENSMUST00000029046|mus_mus|mus_mus_mus_hu_True|18_48 (ssRNA)
RNA: GGGAGUUCUACAGUCCGACGAUCGUUUUUACCAUCACAAGUGAUGAUACAAUCUGGCUUGGCCAUUGCGCCCAUUUUUCGCAAAGCCAGUCCUACUCCUAGCUCCUUCAUGUAUUCCUCAAAGCCGUUGCUGUCCACCAGGCGCAACAGAGGAUUGAGCAUCA
B3: chr3:52741720:52741721:+_ENSG00000114902_ENST00000602728|hu_hu|motif|central (ssRNA)
RNA: GGGAGUUCUACAGUCCGACGAUCAUAGAUGGGCCAUGGAGGAAGUGUCAGCAAACAUGAAAAAGCAAAUCCGGCCAUAACGGUAUAGACAGUCCACCCGAACUGUUCAGCCACGUACCCGUAGAUAAAUCCAACUAUUGCAGACAACAGAGGAUUGAGCAUCA
B4: chr2:125083379:125083380:+_ENSMUSG00000027203_ENSMUST00000082122|mus_hu|FALSE|FALSE (ssRNA)
RNA: GGGAGUUCUACAGUCCGACGAUCUAAAAAAUAUUGCUUAAGAUUUAAAGCAAUUAAAGCAAAAUAAGUUGCUGAAGGGAGAUCAUAUGAGUUAAAUACAGGCUUUUUUUUUUAAUCUGUAAUUGAUUUACAUUUGAUUUUAAGCAACAGAGGAUUGAGCAUCA
B5: chr18:10000604:10000605:-_ENSMUSG00000047879_ENSMUST00000092096|mus_hu|FALSE|FALSE (ssRNA)
RNA: GGGAGUUCUACAGUCCGACGAUCAGACACCAUUUUCUCUUGAAGUUCUGGUGUACACAGUUCAUACAUAUCCAACAUAAGAGGAAAUUUAACAUCCUUAAGAACUUUGGCAUUCACAGAUUCCUUCUCUUUAUAAAAAAAUCGCAACAGAGGAUUGAGCAUCA
B6: chr3:176767854:176767855:-_ENSG00000177565_ENST00000430069|hu_hu|hu_hu_hu_mus_False|58_68 (ssRNA)
RNA: GGGAGUUCUACAGUCCGACGAUCGACAUCCUUGUUACUGGGCACGUCCUGCCCUCCUUCCCGUAUGCAAUGUCUAAGUACUAACUGCGUAGGGCCACUCGUGCUGUUCUCACUGAGGUUCCAGAUUCUUGCCGUGGAGUCUCCCAACAGAGGAUUGAGCAUCA
B7: chr12:39763582:39763583:-_ENSG00000139116_ENST00000544797|hu_mus|hu_hu_hu_mus_False|48_58 (ssRNA)
RNA: GGGAGUUCUACAGUCCGACGAUCCUCUAGGAACUGGGCAUUCACUUUGAAUUCAGGAGGGGGCAGCCCGUUUUUAAUUGCUAUGUGUUUUUUUUCUUCAAUACUCUUGAACAGGUGUCUAACAGCACGAGAGAUGAUGCCCUGCAACAGAGGAUUGAGCAUCA
B8: chr11:77336104:77336105:-_ENSG00000074201_ENST00000525064|hu_mus|hu_hu_hu_mus_False|1_1 (ssRNA)
RNA: GGGAGUUCUACAGUCCGACGAUCCUCACACAUUGCUGUGAACAUCGCCUCCAAUGCUGACUUAUCACUGGGCACAAAUCGAAAUUCAGAAAUGGGUUCAACAUCAUCAUUGUCUUCCUCAUCUUCAUCAGAGAGAGCAGGUUCCAACAGAGGAUUGAGCAUCA
B9: chr2:232320318:232320319:-_ENSG00000115053_ENST00000322723|hu_hu|hu_hu_hu_mus_True|38_48 (ssRNA)
RNA: GGGAGUUCUACAGUCCGACGAUCACUAUUAAAGUCUACAAAACCAAACCCUUUGGAAGAACCAGUUUCCCGAUCAGUGACUAUUCUUGCCCGAACGGAGCCGUCAAAUGAUUCUUUUAAGGUCUCUUCAGUGGUAUCCUCAGACAACAGAGGAUUGAGCAUCA
B10: 36009425_36013022_520_3pUTR_ENSMUSG00000022905_ENSMUST00000004054|mouse|control|control (ssRNA)
RNA: GGGAGUUCUACAGUCCGACGAUCUACUCCUGGUGUGUUGAUGACUUCAUCAAUUGGAGGAUUAGGUUCUUUUGAAAGUAGUUUCCUAAACUUCUGUGUUGCAGAGAGCUGCUGCUCUGGGCUAUUCGAGAAUAUCAUAUCAGUCAACAGAGGAUUGAGCAUCA
B11: chr17:28199517:28199518:+_ENSMUSG00000024219_ENSMUST00000088027|mus_hu|FALSE|FALSE (ssRNA)
RNA: GGGAGUUCUACAGUCCGACGAUCCUCAAAGUGUUUAUAAUUCAGACAAAAUCAGACAGAUUAACAAUUUUAUAUACAGUAAAACAAAAGGGAAAGUCAUUCAAGUAUCAAAAUACAGAGACAAAGAUUAAAUAACAUUUUCAUCAACAGAGGAUUGAGCAUCA
B12: chr11:29999759:29999760:-_ENSMUSG00000020315_ENSMUST00000011877|mus_mus|motif|central (ssRNA)
RNA: GGGAGUUCUACAGUCCGACGAUCAUACACUUAGCAAUGAUUUAAAGGGUUUAUUAUACAUCUAGUUUAUUAUACUUUGUACGGGAAUUAUCUCAAACAUACAAUAUAAUGUAUUUCAGAAAAAAAGAGACUGAAAUUACAGAUCAACAGAGGAUUGAGCAUCA
B13: chr2:47387792:47387793:-_ENSG00000143933_ENST00000272298|hu_hu|hu_hu_hu_mus_True|38_38 (ssRNA)
RNA: GGGAGUUCUACAGUCCGACGAUCUAAGGACAAUGACAGUAAGAUAAGGGAAGAAAACAUGGAGGAAUGAAGUCCUAAUUACUAUACAUGCAUAUUUUUUUGACAGUGGGGGGGGGAACCUUUUACAGAUAAGUUACAAACAAACAACAGAGGAUUGAGCAUCA
B14: chr7:75932113:75932114:+_ENSG00000106211_ENST00000248553|hu_hu|hu_hu_hu_mus_False|8_8 (ssRNA)
RNA: GGGAGUUCUACAGUCCGACGAUCCUGCGACCACUCAUCGGGCAACCGGGGCACCCCGAAAGCUUGAUCGAAGAGGCGGCUGUGUGCAGGGUACCAGUCCCGGAAUGGUUCCCAGCUCGGGCUCCGCAGCGAGAAGGAGGGCACCAACAGAGGAUUGAGCAUCA
B15: 74934108_74934228_2618_3pUTR_ENSG00000253719_ENST00000519948|human|control|control (ssRNA)
RNA: GGGAGUUCUACAGUCCGACGAUCAAUCAGUCUAUACAGUCUAAAUAGUACCUUCUGGGAUAAGGAUUGAUACAUGCACAGCAAGGGUGAGAGAAUGGACAAGGACCAACUCCAUCCCCCUGUGUGUCAAUCAGCCUUUACUGCCAACAGAGGAUUGAGCAUCA
B16: chr4:76721835:76721836:+_ENSG00000138768_ENST00000264904|hu_hu|FALSE|FALSE (ssRNA)
RNA: GGGAGUUCUACAGUCCGACGAUCUUUGGCUGGGGUUUCUGAGAUGCUCUGGAAUACAACUCAUGUUUGCUAAUAAAUCCUAGUUUCUCUAUGAAAUUCUCUUUGCCAAUCCUCUUCUCAAUCAGUUGUUUUAGCUUCUCUUUCCAACAGAGGAUUGAGCAUCA
B17: chr12:49580477:49580478:-_ENSG00000167552_ENST00000550767|hu_hu|FALSE|FALSE (ssRNA)
RNA: GGGAGUUCUACAGUCCGACGAUCCACUGCCCGGGGCACAUGCUUGCCAGCCCCCGUCUCACUGAAGAAGGUGUUGAAGGAAUCAUCUCCUCCCCCAAUGGUCUUGUCACUUGGCAUCUGGCCAUCGGGCUGGAUGCCGUGUUCCAACAGAGGAUUGAGCAUCA
B18: chr5:128448638:128448639:+_ENSG00000066583_ENST00000173527|hu_mus|hu_hu_hu_mus_False|18_68 (ssRNA)
RNA: GGGAGUUCUACAGUCCGACGAUCGGCACUCGCCUUAAUUAGGUUCUGAAUUUCCUUGAACUUCGGGUGGUCCUUAUCAGCCACCAGCUGUAGGAGGACAGCCUCACUAGUGGUCACUAUGAUCCCGGUGCGGGCAAGACGCUCCAACAGAGGAUUGAGCAUCA
B19: chr11:12883819:12883820:+_ENSG00000187079_ENST00000361905|hu_hu|FALSE|FALSE (ssRNA)
RNA: GGGAGUUCUACAGUCCGACGAUCAAUGUGACUAGACACCUGUUUUCUGGUCCUCGUCUUGCCUGUCCUGAGUUUGAUGUAUCUGGCUAUCAAUUCAUUCCUACCAUACAUUUUGCCUUCGUCUGAUAAGAUGAUUUUCCUCCUCAACAGAGGAUUGAGCAUCA
B20: 38560734_38562653_2154_CDS_ENSG00000131747_ENST00000423485|human|control|control (ssRNA)
RNA: GGGAGUUCUACAGUCCGACGAUCCAAGUAAUCCUCAGGAAGCCCAAGUAACUUUCGUUGUCUUCUAUCCUCCAUGAAAUUAGUUAACCAUUCCUUUCGAUCAUCUAUCUGUUUUUUGCUAAAGGCCAGGCUGAUAGCAGCAUCCAACAGAGGAUUGAGCAUCA
B21: chr2:216981417:216981418:+_ENSG00000079246_ENST00000392132|hu_hu|hu_hu_hu_mus_True|38_48 (ssRNA)
RNA: GGGAGUUCUACAGUCCGACGAUCCUGAUACUGGUCCUUGCCAGCAAGGGCAUUAUCAGUGCCAUCUGUGCCAUAGAGGACUAACGCAAUCUCAUCCUUGUUCUCAGAAAAUACCUGUCGUUGGACAAACAUAGUCAUCACUUUCAACAGAGGAUUGAGCAUCA
B22: chr7:54825262:54825263:-_ENSG00000132432_ENST00000352861|hu_hu|hu_hu_hu_mus_False|8_68 (ssRNA)
RNA: GGGAGUUCUACAGUCCGACGAUCCUGCCGGCUGGGCUCCACAAACUGCAUUACCUGAUCCAUGUUUUACCCAACCGGGAUUGAGAGCGUAGAGACACGUAGCUCAGGAGAGAACCGAGCCCAACGGCACCGGAACCUGGCAACCAACAGAGGAUUGAGCAUCA

Molecular target: T1, UNK ZnF1-3 (human, UniProt Q9C0B0 31-174)
T1 sequence: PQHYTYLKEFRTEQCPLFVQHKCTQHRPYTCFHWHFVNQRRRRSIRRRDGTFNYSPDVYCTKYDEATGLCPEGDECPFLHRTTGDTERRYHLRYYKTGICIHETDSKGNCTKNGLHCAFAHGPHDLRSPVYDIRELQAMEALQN
Assay: nsRBNS (natural sequence RNA bind-n-seq); RBNS binding buffer (assumed for nsRBNS): 25 mM Tris pH 7.5, 150 mM KCl, 3 mM MgCl2, 0.01% Triton X-100, 500 ug/ml BSA, 20 U/ml SUPERase-In, 4 C; UNK is unkempt and MSI1 is Musashi-1; names of the RNAs are library labels; protein concentration not given here; high values mean tight binding

| Binder | binding signal [enrichment R] |
| --- | --- |
| B1 | 0.679 |
| B2 | 0.6 |
| B3 | 1.56 |
| B4 | 1.49 |
| B5 | 0.96 |
| B6 | 0.653 |
| B7 | 1.5 |
| B8 | 1.05 |
| B9 | 0.718 |
| B10 | 0.553 |
| B11 | 1.84 |
| B12 | 0.784 |
| B13 | 1.92 |
| B14 | 1.42 |
| B15 | 0.856 |
| B16 | 0.43 |
| B17 | 0.659 |
| B18 | 0.507 |
| B19 | 0.39 |
| B20 | 0.895 |
| B21 | 0.626 |
| B22 | 0.722 |
